In PubChem BioAssay AID1030 (National Center for Advancing Translational Sciences (NCATS), 2008):
About 16,000 (7.3%) of roughly 220,000 compounds were called active. This list was built around the results that the source calls inconclusive (neither active nor inactive); the mix of calls is not that of the screen. Calls follow the shape of the dose curve; as a rule, active = well fitted inhibition curve with a large enough effect (not every such curve was filed as active); inconclusive = small, poorly fitted or top-dose-only effect, or another doubt; inactive = no such curve, though single readings can be large or run the other way. No potency is given beside an inconclusive call; the fits are too rough.
Potency is read from the fitted curve at half-maximal effect; tags tell the direction and shape of the fitted curve.

The compounds below were run against Aldehyde dehydrogenase 1A1 (Homo sapiens) (UniProt P00352) (assay: qHTS Assay for Inhibitors of Aldehyde Dehydrogenase 1 (ALDH1A1)). Settings: Purified ALDH1A1, NADH fluorescence, propionaldehyde substrate; series mostly up to 75.3 µM.
UniProt P00352, sequence (P00352 whole entry, looked up): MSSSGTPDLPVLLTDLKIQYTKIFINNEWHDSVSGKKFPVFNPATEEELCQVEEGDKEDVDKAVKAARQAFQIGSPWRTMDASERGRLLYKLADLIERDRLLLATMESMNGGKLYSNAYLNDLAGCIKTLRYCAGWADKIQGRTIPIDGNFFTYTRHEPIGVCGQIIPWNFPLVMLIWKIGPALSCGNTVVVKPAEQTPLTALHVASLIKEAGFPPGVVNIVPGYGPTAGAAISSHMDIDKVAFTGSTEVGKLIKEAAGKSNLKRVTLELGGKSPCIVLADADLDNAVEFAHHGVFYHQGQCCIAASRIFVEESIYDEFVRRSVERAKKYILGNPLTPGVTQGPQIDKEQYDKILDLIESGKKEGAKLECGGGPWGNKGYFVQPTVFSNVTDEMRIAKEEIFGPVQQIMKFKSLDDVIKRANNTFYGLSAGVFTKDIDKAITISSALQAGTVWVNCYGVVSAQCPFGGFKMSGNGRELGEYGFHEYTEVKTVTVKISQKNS
`CN(c1ccc(OCC(=O)N2CCCCC2)cc1)S(=O)(=O)c1cccs1` was tested, and the Potency was “inactive”.
In the case of `COc1cccc(-n2cnc3c(sc4nc(N5CCOCC5)c5c(c43)CCCC5)c2=O)c1`, the Potency is reported as inconclusive [inhibitor, partial curve].
For `COCCCNC(=O)/C=C/c1c(Cl)cccc1Cl`, the Potency was “inactive”.
For `Cc1ccccc1SCc1noc(C(=O)NCC2CCCO2)c1C(=O)O` (configuration not stated), the Potency was “inactive”.
In the case of `COc1ccc(OCC2c3cc(OC)c(OC)cc3CCN2C(=O)C(C)C)cc1` (configuration not stated), the Potency is reported as “inactive”.
In the case of `CCN(CCNC(=O)C1CCCN(Cc2nc(-c3ccc(OC)cc3)oc2C)C1)c1ccccc1` (configuration not stated), the Potency is reported as inconclusive [inhibitor, single point].
In the case of `Cc1cccc(C(=O)NNC(=O)c2ccc(Cl)cc2)c1O`, the Potency is reported as inconclusive [inhibitor, single point].
With `CCCn1nnc(NC(=O)c2ccccc2Cl)n1` the Potency was “inactive”.
With `Cc1ccc(NC(=O)CCNC(=O)c2ccc([N+](=O)[O-])cc2)cc1S(=O)(=O)N(C)C` the Potency was inconclusive [inhibitor, single point].
In the case of `CC(C)C(=O)Nc1ccc2c(c1)C(=O)NC2=O`, the Potency is reported as inconclusive [inhibitor, single point].
In the case of `Cc1sc(NC(=O)CSc2nc(N)n(CC(=O)c3ccccc3)n2)c(C#N)c1C`, the Potency is reported as inconclusive [inhibitor, single point].
For `CCCC1C2CN(C(C)C)CC=C2C(C#N)=C(N)C1(C#N)C#N` (configuration not stated), the Potency was inconclusive [inhibitor, partial curve].
`COc1ccc2nc3oc(C(=O)NCc4cccs4)cc3cc2c1` was tested, and the Potency was inconclusive [inhibitor, partial curve].
For `Cc1ccc(NC(=O)/C=C/c2ccc3c(c2)OCO3)cc1S(=O)(=O)N1CCOCC1`, the Potency was inconclusive [inhibitor, single point].
For `COc1ccccc1-c1nnc(N(C)C(=O)C2CCCO2)s1` (configuration not stated), the Potency was inconclusive [inhibitor, partial curve].
For `CCCCOc1ccc(-c2nnc(-c3cc[n+](C)cc3)o2)cc1`, the Potency was inconclusive [inhibitor, single point].
For `O=C(CNC(=O)c1ccccc1)OC(C(=O)c1ccccc1)c1ccccc1` (configuration not stated), the Potency was “inactive”.
With `Cn1ccnc1SCc1ccc([N+](=O)[O-])cc1` the Potency was “inactive”.
With `COc1cc(C(=O)NCCc2ccc(F)cc2)c([N+](=O)[O-])cc1OC` the Potency was “inactive”.
In the case of `CC1CCc2c(sc(NC(=O)C3CCCO3)c2C#N)C1` (configuration not stated), the Potency is reported as inconclusive [inhibitor, partial curve].
In the case of `COc1ccc(N2CCc3c(C)nc(SC)nc32)cc1`, the Potency is reported as inconclusive [inhibitor, single point].
For `O=C(c1cccc2ccccc12)N1CCC(N2CCN(c3ccccc3)CC2)CC1`, the Potency was inconclusive [inhibitor, single point].
`COC(=O)c1c(C)[nH]c(O)c1C=Nc1ccc(C#N)cc1` was tested, and the Potency was inconclusive [inhibitor, single point].
For `COc1cc(NC(=O)Cn2ccsc2=N)c(C)cc1[N+](=O)[O-]`, the Potency was “inactive”.
In the case of `CC(NS(=O)(=O)c1ccccc1)C(N)=O` (configuration not stated), the Potency is reported as inconclusive [inhibitor, single point].
For `CCOC(=O)c1c(/N=C/c2cc(C)ccc2O)sc2c1CCC2`, the Potency was inconclusive [inhibitor, single point].
In the case of `Nc1cc(Cl)ccc1N1CCCCCC1`, the Potency is reported as active: 17.8 µM.
With `COCCNc1oc(-c2ccc(C)cc2)nc1C#N` the Potency was inconclusive [inhibitor, partial curve].
`CC1=CC(=O)c2c(O)ccc(O)c2C1=O` was tested, and the Potency was active: 31.6 µM.
With `CCOc1ccc(Cc2nc(N)nc(N)n2)cc1` the Potency was “inactive”.
`COC(=O)C1=CN(C2CCCCC2)C=C(C(=O)OC)C1c1ccc2c(c1)OCO2` was tested, and the Potency was inconclusive [inhibitor, single point].
`Cc1cc([N+](=O)[O-])cc2c1NCC1CC=CC21` (configuration not stated) was tested, and the Potency was inconclusive [inhibitor, partial curve].
`CCNc1ncc2nc(-c3ccc(OC)cc3)c(=O)n(CCOC)c2n1` was tested, and the Potency was inconclusive [inhibitor, partial curve].
With `CC(Sc1ccc(S(=O)(=O)N2CCOCC2)cc1[N+](=O)[O-])C(=O)O` (configuration not stated) the Potency was inconclusive [inhibitor, partial curve].
In the case of `COCCNC(=S)NN=C1CCCCCC1`, the Potency is reported as inconclusive [inhibitor, partial curve].
`CCCCCCCCCC[n+]1cccc2c3ccccc3ccc21` was tested, and the Potency was inconclusive [inhibitor, single point].
For `O=[N+]([O-])c1ccc2c(c1)nc1n2CCN(CC2CCCO2)C1` (configuration not stated), the Potency was inconclusive [inhibitor, single point].
`CC1(C)Cc2c(c(N3CCOCC3)nc3snc(Br)c23)CO1` was tested, and the Potency was inconclusive [inhibitor, partial curve].
For `COCCn1c(=O)c(-c2ccc(Cl)cc2)nc2cnc(Oc3cccc(Cl)c3)nc21`, the Potency was inconclusive [inhibitor, single point].
For `CCCn1ncc(OC)c(Cl)c1=O`, the Potency was “inactive”.
In the case of `COc1ccc(S(=O)(=O)N2CCN(C(=O)CCC3CCCC3)CC2)cc1`, the Potency is reported as “inactive”.
With `COc1ccc(CN2CCN(C(=O)c3ccco3)CC2)cc1` the Potency was inconclusive [inhibitor, single point].
For `CC1CCCCC1NC(=O)CCS(=O)(=O)c1cccc2nonc12` (configuration not stated), the Potency was active: 10 µM.
`Cc1ccc(S(=O)(=O)NCC(=O)OCc2csc(-c3ccccc3)n2)cc1` was tested, and the Potency was inconclusive [inhibitor, single point].
In the case of `Cc1cccc(NC(=S)NNC(=O)c2csc(C(C)C)c2)c1`, the Potency is reported as active: 12.6 µM.
With `c1ccc(CSc2nnc(-c3ccco3)n2Cc2ccccc2)cc1` the Potency was inconclusive [inhibitor, partial curve].
With `Cc1ccc2nc(C)cc(N/N=C/c3ccc(F)cc3)c2c1` the Potency was “inactive”.
For `COc1cccc(C2CN(c3ccc(F)cc3F)N=C2c2cccs2)c1OC` (configuration not stated), the Potency was inconclusive [inhibitor, partial curve].
For `C=CCSc1nc2ccsc2c(=O)n1-c1cccnc1`, the Potency was “inactive”.
With `Cc1ccc2c(c1)C(CCN)C(=O)N2Cc1ccccc1` (configuration not stated) the Potency was active: 31.6 µM.
For `O=C1CC(c2ccc(Cl)cc2)CC(=O)C1CS(=O)(=O)c1ccccc1` (configuration not stated), the Potency was active: 7.08 µM.
`Nc1nc(SCC(=O)c2ccc([N+](=O)[O-])cc2)n[nH]1` was tested, and the Potency was “inactive”.
`CCCc1n(CC)c2ccccc2[n+]1CC(O)COC1CCCCC1` (configuration not stated) was tested, and the Potency was inconclusive [inhibitor, single point].
For `O=C(Nc1ccc(NC(=S)NC(=O)c2cccs2)cc1)c1ccco1`, the Potency was “inactive”.
With `COc1cccc(OC)c1C(=O)N1CCN(c2ccccn2)CC1` the Potency was inconclusive [inhibitor, partial curve].
With `Cc1ccccc1Cn1c(=N)n(CC(=O)c2ccc([N+](=O)[O-])cc2)c2ccccc21` the Potency was inconclusive [inhibitor, single point].
In the case of `COc1ccc(CNC(=O)c2sc(=S)n(-c3ccc(OC)cc3)c2N)cc1`, the Potency is reported as active: 18.9 µM.
In the case of `N#Cc1c(SCC(=O)O)nc(-c2ccccc2)c2c1CCCC2`, the Potency is reported as active: 17.8 µM.
For `Cc1nc(NC(=O)CSc2ccccc2N)sc1C`, the Potency was active: 22.4 µM.
For `CCCCC/C=C\CC1OC1CCCCCCCC(=O)O` (configuration not stated), the Potency was “inactive”.
For `Cc1nn(Cc2ccccc2)c(C)c1NC(=O)c1cc2nc(-c3ccco3)cc(C(F)(F)F)n2n1`, the Potency was inconclusive [inhibitor, partial curve].
`COc1ccc(NC(=O)CC2C(=O)N(C)C(=S)N2Cc2ccc3c(c2)OCO3)cc1` (configuration not stated) was tested, and the Potency was inconclusive [inhibitor, partial curve].
For `Cc1cccc(N(Cc2ccc(Cl)cc2)S(C)(=O)=O)c1`, the Potency was “inactive”.
With `Cn1c(-c2nc(-c3ccccc3)cs2)nc2ccccc21` the Potency was inconclusive [inhibitor, partial curve].
For `O=C(NC1CCCCC1)Sc1ccc(Cl)cc1`, the Potency was inconclusive [inhibitor, full curve].
`CC1(C)OC(=O)C(=CNc2ccccn2)C(=O)O1` was tested, and the Potency was inconclusive [inhibitor, partial curve].
In the case of `C(=N/Nc1nccs1)/c1cccnc1`, the Potency is reported as “inactive”.
With `COC(=O)c1c(-n2cnnn2)sc(C)c1C` the Potency was inconclusive [inhibitor, single point].
For `CCCOP(=O)(c1ccc(N(C)C)cc1)C(O)c1ccncc1` (configuration not stated), the Potency was inconclusive [inhibitor, partial curve].
`CCOC(=O)C1C(=O)CC(=O)CC1CC(C)SCC` (configuration not stated) was tested, and the Potency was active: 12.6 µM.
In the case of `COc1cccc(S(=O)(=O)Nc2ccc(C(=O)NCc3ccco3)cc2)c1`, the Potency is reported as active: 28.2 µM.
In the case of `O=C(N/N=C/c1sc(N2CCCCC2)nc1-c1cccs1)C1CC1`, the Potency is reported as active: 22.4 µM.
With `COc1ccc(Br)cc1C(=O)Nc1ccc(O)cc1` the Potency was inconclusive [inhibitor, partial curve].
For `O=C(CSc1ccccn1)Nc1ccc(N2CCOCC2)cc1`, the Potency was inconclusive [inhibitor, single point].
With `O=C1CCCN1c1ccc(S(=O)(=O)NCCc2ccc(Cl)cc2)cc1` the Potency was inconclusive [inhibitor, single point].
For `CCOC(=O)c1ccc(NC(=O)CSCC(=O)OCC(=O)c2ccccc2)cc1`, the Potency was inconclusive [inhibitor, single point].
`CCOc1ccc(CC(C(N)=O)C(N)=O)cc1CN(C)C` was tested, and the Potency was “inactive”.
